# Data from the supplement of paper PMC6089552.
# The campaign covered roughly 3,200 compounds. About 300 (9.4%) showed activity. This is a selection; strong and weak results do not stand in their true shares.
# Tested on: A673/TR/shEF
# Assay: cell viability (LOESS-normalised, relative to median of negative controls) (log2 ratio); higher = more viable cells (less compound effect), active = hit call of the paper (over 3 MAD below the median)
# Details: treatment time: 72 h
# Procedure, shortened: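 A673/TR/shEF Ewing sarcoma cells (1,500 per well, 384-well plates) were grown with or without doxycycline to induce EWS-FLI1 shRNA knockdown, starting 24 h before compounds. Library compounds at two or more concentrations, with DMSO controls, were added for three days. Cell viability was read by CellTiter-Glo luminescence on an Envision reader, then LOESS-corrected per plate, divided by the median of negative controls and log2-transformed. Hits were wells at least three median absolute deviations from the median of all screened wells.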
# [1] = 0.25 µM, library screen: screen2, EWS-FLI1 expression: high (no doxycycline)
# [2] = 0.25 µM, library screen: screen2, EWS-FLI1 expression: low (doxycycline-induced shRNA knockdown)
# [3] = 2.5 µM, library screen: screen2, EWS-FLI1 expression: high (no doxycycline)
# [4] = 2.5 µM, library screen: screen2, EWS-FLI1 expression: low (doxycycline-induced shRNA knockdown)
# [5] = 0.25 µM, library screen: screen1, EWS-FLI1 expression: high (no doxycycline)
# [6] = 0.25 µM, library screen: screen1, EWS-FLI1 expression: low (doxycycline-induced shRNA knockdown)
# [7] = 2.5 µM, library screen: screen1, EWS-FLI1 expression: high (no doxycycline)
# [8] = 2.5 µM, library screen: screen1, EWS-FLI1 expression: low (doxycycline-induced shRNA knockdown)
# [9] = 0.103 µM, library screen: screen3, EWS-FLI1 expression: high (no doxycycline)
# [10] = 0.103 µM, library screen: screen3, EWS-FLI1 expression: low (doxycycline-induced shRNA knockdown)
# [11] = 0.308 µM, library screen: screen3, EWS-FLI1 expression: high (no doxycycline)
# [12] = 0.308 µM, library screen: screen3, EWS-FLI1 expression: low (doxycycline-induced shRNA knockdown)
# [13] = 0.926 µM, library screen: screen3, EWS-FLI1 expression: high (no doxycycline)
# [14] = 0.926 µM, library screen: screen3, EWS-FLI1 expression: low (doxycycline-induced shRNA knockdown)
# [15] = 2.8 µM, library screen: screen3, EWS-FLI1 expression: high (no doxycycline)
# [16] = 2.8 µM, library screen: screen3, EWS-FLI1 expression: low (doxycycline-induced shRNA knockdown)
# [17] = 8.3 µM, library screen: screen3, EWS-FLI1 expression: high (no doxycycline)
# [18] = 8.3 µM, library screen: screen3, EWS-FLI1 expression: low (doxycycline-induced shRNA knockdown)
# [19] = 25 µM, library screen: screen3, EWS-FLI1 expression: high (no doxycycline)
# [20] = 25 µM, library screen: screen3, EWS-FLI1 expression: low (doxycycline-induced shRNA knockdown)
structure (smiles),measurement,setting,value
OC[C@H]1N[C@H](CO)[C@@H](O)[C@@H]1O,cell viability (log2),[1],inactive: 0.176
same,cell viability (log2),[2],inactive: 0.0684
same,cell viability (log2),[3],inactive: 0.108
same,cell viability (log2),[4],inactive: 0.0354
O=c1cc[nH]c(=S)[nH]1,cell viability (log2),[5],inactive: 0.106
same,cell viability (log2),[6],inactive: 0.0599
same,cell viability (log2),[7],inactive: 0.112
same,cell viability (log2),[8],inactive: 0.00736
CCC(C(=O)O)c1ccccc1 (stereo not drawn),cell viability (log2),[5],inactive: 0.0972
same,cell viability (log2),[6],inactive: 0.00275
same,cell viability (log2),[7],inactive: 0.117
same,cell viability (log2),[8],inactive: -0.0183
COc1cc2c(Oc3ccc4[nH]c(C)cc4c3F)ncnc2cc1OCCCN1CCCC1,cell viability (log2),[9],inactive: 0.0825
same,cell viability (log2),[10],inactive: 0.0561
same,cell viability (log2),[11],inactive: 0.034
same,cell viability (log2),[12],inactive: 0.013
same,cell viability (log2),[13],inactive: 0.0586
same,cell viability (log2),[14],inactive: 0.0142
same,cell viability (log2),[15],inactive: 0.0459
same,cell viability (log2),[16],inactive: 0.0297
same,cell viability (log2),[17],inactive: -0.077
same,cell viability (log2),[18],inactive: 0.092
same,cell viability (log2),[19],inactive: 0.0238
same,cell viability (log2),[20],inactive: 0.0041
CC(=O)O[C@]1(C(C)=O)CC[C@H]2[C@@H]3C[C@H](C)C4=CC(=O)CC[C@]4(C)[C@H]3CC[C@@]21C,cell viability (log2),[5],inactive: 0.059
same,cell viability (log2),[6],inactive: -0.0147
same,cell viability (log2),[7],inactive: 0.0251
same,cell viability (log2),[8],inactive: 0.152
CC(C)NCC(O)c1ccc2ccccc2c1 (stereo not drawn),cell viability (log2),[5],inactive: 0.144
same,cell viability (log2),[6],inactive: 0.0682
same,cell viability (log2),[7],inactive: 0.153
same,cell viability (log2),[8],inactive: -0.0007
CN(C)c1nc(N(C)C)nc(N(C)C)n1,cell viability (log2),"0.025 µM, library screen: screen2, EWS-FLI1 expression: high (no doxycycline)",inactive: 0.116
same,cell viability (log2),"0.025 µM, library screen: screen2, EWS-FLI1 expression: low (doxycycline-induced shRNA knockdown)",inactive: -0.0745
same,cell viability (log2),[9],inactive: 0.0751
same,cell viability (log2),[10],inactive: -0.0422
same,cell viability (log2),[5],inactive: 0.139
same,cell viability (log2),[6],inactive: 0.148
same,cell viability (log2),[1],inactive: 0.0462
same,cell viability (log2),[2],inactive: 0.0478
same,cell viability (log2),[11],inactive: -0.025
same,cell viability (log2),[12],inactive: 0.0382
same,cell viability (log2),[13],inactive: -0.0382
same,cell viability (log2),[14],inactive: 0.1
same,cell viability (log2),[7],inactive: 0.104
same,cell viability (log2),[8],inactive: 0.206
same,cell viability (log2),[3],inactive: 0.0387
same,cell viability (log2),[4],inactive: 0.105
same,cell viability (log2),[15],inactive: 0.0274
same,cell viability (log2),[16],inactive: 0.0363
same,cell viability (log2),[17],inactive: 0.042
same,cell viability (log2),[18],inactive: 0.0579
same,cell viability (log2),"25 µM, library screen: screen2, EWS-FLI1 expression: high (no doxycycline)",inactive: 0.0787
same,cell viability (log2),"25 µM, library screen: screen2, EWS-FLI1 expression: low (doxycycline-induced shRNA knockdown)",inactive: 0.0521
same,cell viability (log2),[19],inactive: 0.0237
same,cell viability (log2),[20],inactive: 0.0542
Nc1ncnc2c1nc(Sc1ccc(Cl)cc1)n2[C@@H]1O[C@@H]2COP(=O)(O)O[C@H]2[C@H]1O,cell viability (log2),[1],inactive: 0.202
same,cell viability (log2),[2],inactive: 0.0851
same,cell viability (log2),[3],inactive: 0.104
same,cell viability (log2),[4],inactive: 0.103
CCCNCC(O)COc1ccccc1C(=O)CCc1ccccc1 (stereo not drawn),cell viability (log2),[5],inactive: 0.0619
same,cell viability (log2),[6],inactive: 0.0658
same,cell viability (log2),[1],inactive: 0.182
same,cell viability (log2),[2],inactive: 0.117
same,cell viability (log2),[7],inactive: 0.0809
same,cell viability (log2),[8],inactive: -0.069
same,cell viability (log2),[3],inactive: 0.106
same,cell viability (log2),[4],inactive: 0.0368
O=[N+]([O-])c1cccc2cn[nH]c12,cell viability (log2),[1],inactive: 0.196
same,cell viability (log2),[2],inactive: 0.0996
same,cell viability (log2),[3],inactive: 0.0483
same,cell viability (log2),[4],inactive: 0.0667
COc1ccccc1OCC(O)CN1CCN(CC(=O)Nc2c(C)cccc2C)CC1 (stereo not drawn),cell viability (log2),[9],inactive: 0.0717
same,cell viability (log2),[10],inactive: -0.00569
same,cell viability (log2),[1],inactive: 0.183
same,cell viability (log2),[2],inactive: 0.0629
same,cell viability (log2),[11],inactive: 0.0503
same,cell viability (log2),[12],inactive: 0.079
same,cell viability (log2),[13],inactive: 0.0573
same,cell viability (log2),[14],inactive: 0.121
same,cell viability (log2),[3],inactive: 0.125
same,cell viability (log2),[4],inactive: 0.0983
same,cell viability (log2),[15],inactive: 0.109
same,cell viability (log2),[16],inactive: 0.117
same,cell viability (log2),[17],inactive: 0.0881
same,cell viability (log2),[18],inactive: 0.0919
same,cell viability (log2),[19],inactive: 0.0739
same,cell viability (log2),[20],inactive: 0.0985
CC(C)[C@@H]1NC(=O)[C@H](CCCCN)NC(=O)[C@@H](Cc2c[nH]c3ccccc23)NC(=O)[C@H](Cc2ccc(O)cc2)NC(=O)[C@H](C)N(C)C(=O)[C@H](Cc2ccccc2)NC1=O,cell viability (log2),[1],inactive: 0.191
same,cell viability (log2),[2],inactive: 0.085
same,cell viability (log2),[3],inactive: 0.149
same,cell viability (log2),[4],inactive: 0.111
COc1cc([C@@H]2c3cc4c(cc3[C@@H](O[C@@H]3O[C@@H]5CO[C@@H](C)O[C@H]5[C@H](O)[C@H]3O)[C@H]3COC(=O)[C@H]23)OCO4)cc(OC)c1O,cell viability (log2),[9],inactive: 0.16
same,cell viability (log2),[10],inactive: 0.0754
same,cell viability (log2),[5],inactive: 0.0215
same,cell viability (log2),[6],inactive: 0.0298
same,cell viability (log2),[1],inactive: 0.197
same,cell viability (log2),[2],inactive: 0.0698
same,cell viability (log2),[11],inactive: 0.0781
same,cell viability (log2),[12],inactive: 0.0446
same,cell viability (log2),[13],inactive: 0.0107
same,cell viability (log2),[14],inactive: 0.0985
same,cell viability (log2),[7],active: -0.176
same,cell viability (log2),[8],inactive: 0.00733
same,cell viability (log2),[3],active: -0.711
same,cell viability (log2),[4],inactive: 0.00714
same,cell viability (log2),[15],active: -0.212
same,cell viability (log2),[16],inactive: -0.0251
same,cell viability (log2),[17],active: -0.857
same,cell viability (log2),[18],active: -0.166
same,cell viability (log2),[19],active: -1.25
same,cell viability (log2),[20],active: -0.367
C[C@H]1C[C@@H]2[C@H]([C@@H](O)C[C@@]3(C)[C@H]2CC[C@]3(O)C(=O)CO)[C@@]2(C)C=CC(=O)C=C12,cell viability (log2),[9],inactive: 0.0283
same,cell viability (log2),[10],inactive: 0.061
same,cell viability (log2),[5],inactive: 0.152
same,cell viability (log2),[6],inactive: 0.0361
same,cell viability (log2),[11],inactive: 0.0425
same,cell viability (log2),[12],inactive: 0.0594
same,cell viability (log2),[13],inactive: 0.0629
same,cell viability (log2),[14],inactive: 0.0972
same,cell viability (log2),[7],inactive: 0.129
same,cell viability (log2),[8],inactive: -0.115
same,cell viability (log2),[15],inactive: 0.0626
same,cell viability (log2),[16],inactive: 0.106
same,cell viability (log2),[17],inactive: 0.0704
same,cell viability (log2),[18],inactive: 0.103
same,cell viability (log2),[19],inactive: 0.0302
same,cell viability (log2),[20],inactive: 0.0263
